Test results published in the supplement of paper PMC8728848.
The list shows a part of the results.

Experiments:
Assay in all cases: glycan array binding signal (z-score within array); higher = stronger binding
Settings in all cases: glycan notation: IUPAC condensed, linker removed
[1] = target: Fuc(a1-3)[Gal3S(b1-4)]GlcNAc6S
Summary of the method: (§1)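 The binding signal is a Z-score computed within each array. Data were drawn from 3228 arrays in the Consortium for Functional Glycomics database, restricted to those with a known protein sequence. Scores were averaged over arrays of the same protein sequence at different concentrations or buffers, and over linkers, and negative values can be taken as non-binding.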

[2] = target: Fuc(a1-3)[GalNAc(b1-4)]GlcNAc
Summary of the method: as §1

[3] = target: Fuc(a1-3)[GalNAc(b1-4)]GlcNAc6S
Summary of the method: as §1

Fuc(a1-4)GlcNAc = target: Fuc(a1-4)GlcNAc
Summary of the method: as §1

Fuc(b1-3)GlcNAc = target: Fuc(b1-3)GlcNAc
Summary of the method: as §1

Gal(a1-2)Gal = target: Gal(a1-2)Gal
Summary of the method: as §1

Gal(a1-3)Gal = target: Gal(a1-3)Gal
Summary of the method: as §1

Gal(a1-3)Gal(b1-3)GlcNAc = target: Gal(a1-3)Gal(b1-3)GlcNAc
Summary of the method: as §1

[4] = target: Gal(a1-3)Gal(b1-3)GlcNAc(b1-2)Man
Summary of the method: as §1

[5] = target: Gal(a1-3)Gal(b1-3)GlcNAc(b1-2)Man(a1-3)[Gal(a1-3)Gal(b1-3)GlcNAc(b1-2)Man(a1-6)]Man(b1-4)GlcNAc(b1-4)GlcNAc
Summary of the method: as §1

[6] = target: Gal(a1-3)Gal(b1-3)GlcNAc(b1-3)GalNAc
Summary of the method: as §1

[7] = target: Gal(a1-3)Gal(b1-3)GlcNAc(b1-6)GalNAc
Summary of the method: as §1

[8] = target: Gal(a1-3)Gal(b1-3)[Fuc(a1-4)]GlcNAc(b1-2)Man(a1-3)[Gal(a1-3)Gal(b1-3)[Fuc(a1-4)]GlcNAc(b1-2)Man(a1-6)]Man(b1-4)GlcNAc(b1-4)GlcNAc
Summary of the method: as §1

Gal(a1-3)Gal(b1-4)Glc = target: Gal(a1-3)Gal(b1-4)Glc
Summary of the method: as §1

Gal(a1-3)Gal(b1-4)GlcNAc = target: Gal(a1-3)Gal(b1-4)GlcNAc
Summary of the method: as §1

[9] = target: Gal(a1-3)Gal(b1-4)GlcNAc(b1-2)Man
Summary of the method: as §1

[10] = target: Gal(a1-3)Gal(b1-4)GlcNAc(b1-2)Man(a1-3)[Gal(a1-3)Gal(b1-4)GlcNAc(b1-2)Man(a1-6)]Man(b1-4)GlcNAc(b1-4)GlcNAc
Summary of the method: as §1

[11] = target: Gal(a1-3)Gal(b1-4)GlcNAc(b1-3)GalNAc
Summary of the method: as §1

[12] = target: Gal(a1-3)Gal(b1-4)GlcNAc(b1-6)GalNAc
Summary of the method: as §1

[13] = target: Gal(a1-3)Gal(b1-4)[Fuc(a1-3)]GlcNAc
Summary of the method: as §1

[14] = target: Gal(a1-3)Gal(b1-4)[Fuc(a1-3)]GlcNAc(b1-2)Man(a1-3)[Gal(a1-3)Gal(b1-4)[Fuc(a1-3)]GlcNAc(b1-2)Man(a1-6)]Man(b1-4)GlcNAc(b1-4)GlcNAc
Summary of the method: as §1

Gal(a1-3)GalNAc = target: Gal(a1-3)GalNAc
Summary of the method: as §1

[15] = target: Gal(a1-3)[Gal(a1-4)]Gal(b1-4)GlcNAc
Summary of the method: as §1

[16] = target: Gal(a1-4)Gal(b1-3)GlcNAc(b1-2)Man(a1-3)[Gal(a1-4)Gal(b1-3)GlcNAc(b1-2)Man(a1-6)]Man(b1-4)GlcNAc(b1-4)GlcNAc
Summary of the method: as §1

Gal(a1-4)Gal(b1-4)Glc = target: Gal(a1-4)Gal(b1-4)Glc
Summary of the method: as §1

Gal(a1-4)Gal(b1-4)GlcNAc = target: Gal(a1-4)Gal(b1-4)GlcNAc
Summary of the method: as §1

[17] = target: Gal(a1-4)Gal(b1-4)GlcNAc(b1-2)Man(a1-3)[Gal(a1-4)Gal(b1-4)GlcNAc(b1-2)Man(a1-6)]Man(b1-4)GlcNAc(b1-4)GlcNAc
Summary of the method: as §1

[18] = target: Gal(a1-4)Gal(b1-4)GlcNAc(b1-3)Gal(b1-4)Glc
Summary of the method: as §1

Gal(a1-4)GlcNAc = target: Gal(a1-4)GlcNAc
Summary of the method: as §1

Gal(a1-6)Glc = target: Gal(a1-6)Glc
Summary of the method: as §1

Gal(b1-2)Gal = target: Gal(b1-2)Gal
Summary of the method: as §1

Gal(b1-3)Gal = target: Gal(b1-3)Gal
Summary of the method: as §1

Gal(b1-3)Gal(b1-4)GlcNAc = target: Gal(b1-3)Gal(b1-4)GlcNAc
Summary of the method: as §1

Gal(b1-3)GalNAc = target: Gal(b1-3)GalNAc
Summary of the method: as §1

[19] = target: Gal(b1-3)GalNAc(a1-3)[Fuc(a1-2)]Gal(b1-4)Glc
Summary of the method: as §1

[20] = target: Gal(b1-3)GalNAc(a1-3)[Fuc(a1-2)]Gal(b1-4)GlcNAc
Summary of the method: as §1

Gal(b1-3)GalNAc(b1-3)Gal = target: Gal(b1-3)GalNAc(b1-3)Gal
Summary of the method: as §1

[21] = target: Gal(b1-3)GalNAc(b1-3)Gal(a1-4)Gal(b1-4)Glc
Summary of the method: as §1

[22] = target: Gal(b1-3)GalNAc(b1-4)Gal(b1-4)Glc
Summary of the method: as §1

[23] = target: Gal(b1-3)GalNAc(b1-4)[Neu5Ac(a2-3)]Gal(b1-4)Glc
Summary of the method: as §1

Gal(b1-3)GlcNAc = target: Gal(b1-3)GlcNAc
Summary of the method: as §1

[24] = target: Gal(b1-3)GlcNAc(a1-3)Gal(b1-4)GlcNAc
Summary of the method: as §1

[25] = target: Gal(b1-3)GlcNAc(a1-6)Gal(b1-4)GlcNAc
Summary of the method: as §1

Gal(b1-3)GlcNAc(b1-2)Man = target: Gal(b1-3)GlcNAc(b1-2)Man
Summary of the method: as §1

[26] = target: Gal(b1-3)GlcNAc(b1-2)Man(a1-3)[Gal(b1-3)GlcNAc(b1-2)Man(a1-6)]Man(b1-4)GlcNAc(b1-4)GlcNAc
Summary of the method: as §1

B1: Epa10 (protein)
chain: MNEKIFRYLTLLFLFELARSLPVEDKLNIKKVFEKRAVDFTPFAHYPRPEGCSSPPNSVSVGLHMNLYNYPYLYVKPSTKGMFTNDTNSDADGETDGDSAGGIEGRAGQCWNPEYQDPNFPRFGYKQYGEFGASDNVNGDISWDHNEFTEGCKPVLAALPPGYNYPDEITFSNFTMVLSGYFKPKTSGVYKFELKADDFILFNFGAKNAFECCNREESIDNFGPYVAYAMWPNQADQELEVYLFEDSYYPLRLFYNNRDYHSKFKIGFYPPGQTTITFDFDGYLFMLDDTGNECRDSIRYRTVCDDKVVDDTTYSTRYSTSMVPGGGSDVITIYYIRMKCEEEDCLGQWDPINNVCYSPDDCADDGGYWNGQMCDQSCKLEGGIVNPDTGDCDKSCIESGGFLDENGNCDTTCRDDGGMLVEGQCDYQCKEAGGILVGDHCDTTCVDSGGKLNEDGTCDHSCRDQGGQLDENGECDTSCKDSGGMLIEGECDTSCKDEGGQLDDNNECINHCKDQGGIIDENGNCDTSCKDSGGKLDESGACDTSCRDDGGIIDENGNCNTTCRDDGGIIVGDHCDTSCRDAGGILIEDHCDTTCRDSGGKLNEDGTCDHSCRDQGGQLDENGKCDYSCKNGGGKLDEDGNCDMSCKENGGKLDENGDCDLSCKEDGGKLDGNGDCDYSCKEEGGVIDESGNCNTTCKDSGGQIIDGECNYGCIEVGGVVIDGECDTSCIDSGGILDGDGNCDRSCIESGGVLEDGACNTTCRDSGGQLNVDGTCDTSCRDDGGMLVEGQCDYQCKEAGGILEDGECVFPPTSSSTSETSSTTDQSSLQSDDSSMESSSTPMDSSTIESSSSEIITSESESESVPIASSSSEVMTSESESESIPILTSSSEIPIASSSSEIPVASSSSEIIIPESESESVPVASSSSEIPIASSSSEIPVASSSSEIPVASSSSEIIIPESESESIPIESTSSEAVSSRSESDSSYPTPTPTTTTITTWPNPIQPTTSNSSPIVSSSTETPGIAESSSRISDLESSRRTSILGDDRTRTRTTITSTITEDGQIITITTTVTGFVPEPTGETEGNGSDDENPENPIENNTDENEFLDPEFTDDIPDDPAGPEDNGNGPVNPEQGNDNDPVNLEDSGNNGAVNPEQAPVNDEDNGGNDPVNPEQDNNNGPANPGQDSTNGSGNSDQIDNNPPTPEENAGDGNSNGNDPADPSRRTSILGDERTRASPGGTSQPTGANGNVNGNSPGANVNGGGTGNSNNNNNNNNNNNNGNAPNGGDGSNGDANQGPSRRTSLLGDERTRAGQAAPTGGSSPDNGIAGDTSNNGGAIVSQQVDDGGAGSPRRTSILGDVRSRTTLNGEVLNFEGSGVRRAVAGNLALPLMMVGLVFNL
For B1, the “glycan array binding signal (z-score)” value [1] was -0.177, the “glycan array binding signal (z-score)” value [2] was -0.269 and the “glycan array binding signal (z-score)” value [3] was -0.288. For the same binder, the “glycan array binding signal (z-score)” value (Fuc(a1-4)GlcNAc) was -0.253, the “glycan array binding signal (z-score)” value (Fuc(b1-3)GlcNAc) was -0.291 and the “glycan array binding signal (z-score)” value (Gal(a1-2)Gal) was -0.244. The “glycan array binding signal (z-score)” value (Gal(a1-3)Gal) was 0.021, the “glycan array binding signal (z-score)” value (Gal(a1-3)Gal(b1-3)GlcNAc) was 0.061 and the “glycan array binding signal (z-score)” value [4] was 0.532. The “glycan array binding signal (z-score)” value [5] was -0.031, the “glycan array binding signal (z-score)” value [6] was 0.048 and the “glycan array binding signal (z-score)” value [7] was 0.287. For the same binder, the “glycan array binding signal (z-score)” value [8] was -0.172, the “glycan array binding signal (z-score)” value (Gal(a1-3)Gal(b1-4)Glc) was -0.071 and the “glycan array binding signal (z-score)” value (Gal(a1-3)Gal(b1-4)GlcNAc) was 0.324. The “glycan array binding signal (z-score)” value [9] was 0.372, the “glycan array binding signal (z-score)” value [10] was 1.02 and the “glycan array binding signal (z-score)” value [11] was 0.152. For the same binder, the “glycan array binding signal (z-score)” value [12] was 0.115, the “glycan array binding signal (z-score)” value [13] was -0.215 and the “glycan array binding signal (z-score)” value [14] was 0.134. For the same binder, the “glycan array binding signal (z-score)” value (Gal(a1-3)GalNAc) was 0.853, the “glycan array binding signal (z-score)” value [15] was -0.16 and the “glycan array binding signal (z-score)” value [16] was 3.35. The “glycan array binding signal (z-score)” value (Gal(a1-4)Gal(b1-4)Glc) was -0.025, the “glycan array binding signal (z-score)” value (Gal(a1-4)Gal(b1-4)GlcNAc) was 0.512 and the “glycan array binding signal (z-score)” value [17] was 1.46. For the same binder, the “glycan array binding signal (z-score)” value [18] was 1.2, the “glycan array binding signal (z-score)” value (Gal(a1-4)GlcNAc) was 2.31 and the “glycan array binding signal (z-score)” value (Gal(a1-6)Glc) was 1.41. For the same binder, the “glycan array binding signal (z-score)” value (Gal(b1-2)Gal) was 0.325, the “glycan array binding signal (z-score)” value (Gal(b1-3)Gal) was 1.36 and the “glycan array binding signal (z-score)” value (Gal(b1-3)Gal(b1-4)GlcNAc) was 4.92. For the same binder, the “glycan array binding signal (z-score)” value (Gal(b1-3)GalNAc) was 3.84, the “glycan array binding signal (z-score)” value [19] was 3.03 and the “glycan array binding signal (z-score)” value [20] was 3.87. For the same binder, the “glycan array binding signal (z-score)” value (Gal(b1-3)GalNAc(b1-3)Gal) was 6.03, the “glycan array binding signal (z-score)” value [21] was 4.11 and the “glycan array binding signal (z-score)” value [22] was 17. For the same binder, the “glycan array binding signal (z-score)” value [23] was 4.18, the “glycan array binding signal (z-score)” value (Gal(b1-3)GlcNAc) was -0.17 and the “glycan array binding signal (z-score)” value [24] was -0.278. The “glycan array binding signal (z-score)” value [25] was -0.276, the “glycan array binding signal (z-score)” value (Gal(b1-3)GlcNAc(b1-2)Man) was -0.19 and the “glycan array binding signal (z-score)” value [26] was -0.043.
